# Experimental data taken from PubChem BioAssay AID504832 (National Center for Advancing Translational Sciences (NCATS), 2011).
# Where “and” joins values, the source holds several entries; their conditions need not be identical. Identical values can stand only once. About 18,000 (5.8%) of roughly 310,000 compounds were called active. Inconclusive means that the source gave no clear call. Such entries were picked first, then a sample of the others. The call rests on the fitted dose curve; in most records, active means well fitted inhibition curve with a large enough effect; inconclusive means small, poorly fitted or top-dose-only effect, or another doubt; inactive means no such curve, though single readings can be large or run the other way. Potencies of inconclusive entries are doubtful fits and often do not repeat.
# Assay: Primary qHTS for delayed death inhibitors of the malarial parasite plastid, 48 hour incubation
# Conditions: P. falciparum luciferase growth in erythrocytes; series mostly up to 28.7 µM
# How it was run: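 Parasite viability was followed by luminescence of a genomically integrated firefly luciferase. Cultures held 0.1% parasitemia at 2% hematocrit (final), incubated under 5% CO2 at 37 C.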
# On the % scale 0 is the no-effect control and ±100 the full control effect; potency means the concentration at half of the fitted maximal effect; tags describe the fitted curve by direction and shape.
SMILES,Potency,"activity change, negative = inhibition"
CCc1ccccc1NC(=O)c1cc([N+](=O)[O-])ccc1N1CCOCC1,inactive,–
Cn1c(=O)[nH]c2ncccc21,inactive,–
C=C1c2cccc(O)c2C(O)=C2C(=O)[C@@]3(O)C(O)=C(C(N)=O)C(=O)[C@@H](N(C)C)[C@@H]3[C@@H](O)[C@H]12,active: 3.22 µM,–
CNC(=O)CSc1nccn1Cc1ccc(Cl)cc1,"inconclusive: 3.29 µM [inhibitor, single point]",–
CCOc1ccc(CCNC(=O)COC(=O)c2nc(Cl)ccc2Cl)cc1OCC,"inconclusive: 0.928 µM [inhibitor, partial curve]",–
O=C(CSc1nc2[nH]ncc2c(=O)[nH]1)Nc1ccccc1F,"inconclusive: 20.8 µM [inhibitor, single point]",–
CCOc1ccccc1Nc1nnc(SCc2ccc(C(=O)OC)o2)s1,"inconclusive: 10.4 µM [inhibitor, partial curve, poor fit]",–
CCOC(=O)C1CCN(C(=O)Nc2ccc3nccnc3c2)CC1,"inconclusive: 18.5 µM [inhibitor, single point]",–
CCOC(=O)N1CCN(C(=O)c2ccc(CSc3ccc(Cl)cc3)cc2)CC1,"inconclusive: 16.5 µM [inhibitor, single point]",–
COc1ccc2cc(C#N)c(Nc3cccc(F)c3)nc2c1,inactive,–
O=C(COC(=O)Cc1ccccc1[N+](=O)[O-])NNC(=O)c1ccc([N+](=O)[O-])cc1,inactive,–
O=C(NNc1ncnc2c1cnn2-c1ccc(F)cc1)c1ccco1,"inconclusive: 18.5 µM [inhibitor, single point]",–
O=C(COc1cccc(C(F)(F)F)c1)NCC(c1ccco1)N1CCCCC1 (stereo not given),active: 14.7 µM,–
CC(C)c1ccc2oc(-c3ccc(NC(=O)c4ncn[nH]4)cc3)nc2c1,"inconclusive: 18.5 µM [inhibitor, single point]",–
CCCCC1S/C(=N/N=C/c2ccc(OC)cc2)N(Cc2ccc(OC)cc2)C1=O (stereo not given),"inconclusive: 5.86 µM [inhibitor, partial curve, poor fit]",–
Cc1ccc(/C=c2\sc3n(c2=O)CN(c2cccc(Br)c2)CN=3)o1,"inconclusive: 18.5 µM [inhibitor, single point]",–
CC(=O)c1ccc(N2CCN(c3ccnc4cc(Cl)ccc34)CC2)cc1,active: 10.4 µM,–
Fc1ccccc1COc1ccc(Br)cc1CNCc1cccnc1,active: 13.1 µM,–
CCOc1ccc(NC(=O)CN(C)c2ccc(S(=O)(=O)N(C(C)C)C(C)C)cn2)cc1OCC,"inconclusive: 13.1 µM [inhibitor, single point]",–
Cn1nnnc1SCc1nc2ccccc2s1,inactive,–
O=S(=O)(NCCNc1ncc(C(F)(F)F)cc1Cl)C(F)(F)F,inactive,–
COc1ccc([C@@H]2[C@@H]3C(=O)N(C(C)(C)C)C(=O)[C@@H]3[C@]3(C)C(=O)N(c4ccc(C(F)(F)F)cc4)C(=O)N23)cc1,"inconclusive: 14.7 µM [inhibitor, single point]",–
COc1ccc(/C=C/C(=O)Nc2ccc(S(=O)(=O)Nc3onc(C)c3C)cc2)cc1OC,"inconclusive: 0.0828 µM [inhibitor, full curve, poor fit]",–
Cc1nc2ccccc2c(C)c1CC(=O)OC(C)C(=O)NC1(C#N)CCCCC1 (stereo not given),"inconclusive: 10.4 µM [inhibitor, partial curve, poor fit]",–

SMILES,Potency,"activity change, negative = inhibition"
CC(C)Cn1c2c(c(O)c(C(=O)Nc3ncccc3O)c1=O)CCCC2,"inconclusive: 13.1 µM [inhibitor, single point]",–
OC1(c2cccc(C(F)(F)F)c2)CCN(Cc2nnnn2CCc2ccccc2)CC1,"inconclusive: 11.7 µM [inhibitor, single point]",–
COc1cc(-c2nnc(-c3cc(OC)c(OC)c(OC)c3)o2)cc(OC)c1OC,"inconclusive: 10.4 µM [inhibitor, partial curve]",–
CC1CCCN(CCCNC(=O)c2coc3nc4ccccc4nc23)C1 (stereo not given),"inconclusive: 7.38 µM [inhibitor, partial curve]",–
OC1(c2ccc3ccccc3c2)CCN(Cc2ccccc2)C1 (stereo not given),"inconclusive: 13.1 µM [inhibitor, partial curve, poor fit]",–
CC(C)Nc1nc(-c2cccnc2)nc(-c2ccc(Cl)cc2)c1C#N,–,inactive: -0.21% [at 0.00184 µM]
CC(=O)Nc1cc([As](=O)(O)O)ccc1O,"inconclusive: 13.1 µM [inhibitor, partial curve] and inconclusive: 8.49 µM [inhibitor, partial curve, poor fit] and inconclusive: 18.5 µM [inhibitor, single point]",–
O=C(NO)c1ccccc1O,"inconclusive: 8.28 µM [inhibitor, partial curve, poor fit]",–
CSc1ccc(COC(=O)CCS(=O)(=O)c2ccc(C)cc2)cc1,"inconclusive: 18.5 µM [inhibitor, partial curve, poor fit]",–
Cc1cc(Br)ccc1OCCCCNCCO,"inconclusive: 1.17 µM [inhibitor, partial curve]",–
CCn1c(=O)c([N+](=O)[O-])c(NCCc2ccc(OC)c(OC)c2)c2ccccc21,"inconclusive: 10.4 µM [inhibitor, single point]",–
Cc1cccc(NC(=S)NC2CCCCC2)n1,active: 5.22 µM,–
O=C(c1ccccc1)c1ccc(C(=O)N2CCN(c3ccc(F)cc3)CC2)o1,"inconclusive: 5.86 µM [inhibitor, partial curve]",–
Cc1ccc(CNC(=O)CC(C)S(=O)(=O)c2ccc3c(c2)NC(=O)C(C)S3)cc1 (stereo not given),"inconclusive: 8.28 µM [inhibitor, single point]",–
O=C(CCCc1cccs1)Nc1ccc2c(c1)OCO2,inactive,–
O=C(O)/C=C/c1cnn(-c2ccccc2)c1,inactive,–
Cc1cc(C)c(-c2cc(NC(=O)COC(=O)c3ccc(CO)cc3)n(-c3ccccc3)n2)cc1C,"inconclusive: 18.5 µM [inhibitor, single point]",–
Cc1ccc(Cn2c(=O)c3c(nc4n3CCN4Cc3ccco3)n(C)c2=O)cc1,active: 13.1 µM,–
O=C(Nc1cccc(OC(=O)c2ccco2)c1)c1ccco1,inactive,–
Cc1cc(C)c2c(C)c(C(=O)NCc3ccncc3)oc2c1,"inconclusive: 11.7 µM [inhibitor, single point]",–
CCc1ccc(-n2c(C)cc(/C=N/NC(=O)c3ccncc3)c2C)cc1,"inconclusive: 18.5 µM [inhibitor, single point]",–
Cc1cc(C)cc(N(CCC(=O)O)S(=O)(=O)c2ccc(Cl)cc2)c1,inactive,–
CCOc1ccc(-n2c(SCC(=O)NCc3ccco3)nc3ccccc3c2=O)cc1,"inconclusive: 0.0029 µM [inhibitor, full curve, poor fit]",–
Cc1ccccc1S(=O)(=O)Cc1ccc(C(=O)NC2CCC(C)CC2)o1 (stereo not given),"inconclusive: 1.65 µM [inhibitor, single point]",–

SMILES,Potency,"activity change, negative = inhibition"
Cc1ccc(/C=C/C(=O)Nc2cc(S(=O)(=O)N3CCOCC3)ccc2N2CCOCC2)cc1,"inconclusive: 11.7 µM [inhibitor, partial curve]",–
Cc1ccc2nc(-c3ccc(SCC(=O)Nc4nc(C)cs4)nc3)[nH]c2c1,inactive,–
COC(=O)Cc1ccc(NC(=S)N2CCCC(CO)C2)cc1 (stereo not given),active: 14.7 µM,–
C=CCOC(Cn1ccnc1)c1ccc(Cl)cc1Cl (stereo not given),active: 12 µM and active: 4.15 µM,–
COc1ccc(-c2cc(C(=O)O)c3sc(N4CCCCC4)nc3n2)cc1OC,"inconclusive: 2.33 µM [inhibitor, partial curve, poor fit]",–
CCC(C(=O)Nc1ccncc1)c1ccccc1 (stereo not given),active: 4.65 µM,–
COc1ccccc1C1CC(c2ccco2)=NN1c1ccccc1 (stereo not given),"inconclusive: 14.7 µM [inhibitor, single point]",–
O=C(NC1=NCCS1)c1cc(Cl)ccc1Cl,inactive,–
Cc1ccccc1-n1nc(C(=O)c2cccs2)cc(-c2nc3ccccc3[nH]2)c1=N,active: 3.7 µM,–
O=C(CN1CCN(C(=O)c2cccc(S(=O)(=O)N3CCCC3)c2)CC1)Nc1ccccc1Cl,active: 10.4 µM,–
CC(=O)NCCNc1nc2c(-c3ccccc3)nnn2c2ccccc12,"inconclusive: 1.17 µM [inhibitor, partial curve, poor fit]",–
CN(C(=O)COC(=O)c1ccc(Br)c([N+](=O)[O-])c1)c1c(N)n(Cc2ccccc2)c(=O)[nH]c1=O,inactive,–
O=C(c1ccc(O)c(Cl)c1)N1CCN(S(=O)(=O)c2ccccc2)CC1,inactive,–
COc1ccc(C(=O)CSc2nnc(CNc3ccc(F)cc3)o2)cc1,inactive,–
Cc1cc(-c2csc(NC(=O)c3cccc(S(=O)(=O)N(C)C)c3)n2)c(C)n1-c1ccccc1,active: 8.28 µM,–
O=C(N/N=C/c1ccc2c(c1)OCO2)c1cc(-c2ccccc2Cl)nc2ccccc12,"inconclusive: 4.15 µM [inhibitor, single point]",–
O=c1c(-c2ccccc2)coc2c(CN3CCOCC3)c(O)ccc12,"inconclusive: 13.1 µM [inhibitor, single point]",–
O=C(O)/C=C/c1ccc(S(=O)(=O)NCc2ccco2)cc1,inactive,–
O=c1cc(CS(=O)(=O)c2ccccc2)nc(-c2ccncc2)[nH]1,active: 11.7 µM,–
COc1cccc(NC(=O)N2C3CCCC2CC(NC(=O)C2CC2)C3)c1 (stereo not given),inactive,–
O=C(Nc1cccc(S(=O)(=O)N2CCCC2)c1)c1cc(-c2ccccn2)nc2ccccc12,active: 11.7 µM,–
O=C(Nc1cc(S(=O)(=O)N2CCOCC2)ccc1N1CCOCC1)c1ccccc1F,"inconclusive: 10.4 µM [inhibitor, single point]",–
